{
  "source": "paper PMC4336329",
  "about": "(PLoS ONE, 2015)",
  "note": "Screen size: about 310,000 compounds; about 14,000 (4.5%) showed an effect of 50% or more. Effects have a minus sign here. The list shows a part of the results.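 Note: peak tail current of the secondary pulse compared with the same well before compound.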",
  "data": [
    {"molecular_target": "human ether-à-go-go-related gene (hERG) potassium channel (human, UniProt Q12809)", "sequence (Q12809 whole entry, looked up)": "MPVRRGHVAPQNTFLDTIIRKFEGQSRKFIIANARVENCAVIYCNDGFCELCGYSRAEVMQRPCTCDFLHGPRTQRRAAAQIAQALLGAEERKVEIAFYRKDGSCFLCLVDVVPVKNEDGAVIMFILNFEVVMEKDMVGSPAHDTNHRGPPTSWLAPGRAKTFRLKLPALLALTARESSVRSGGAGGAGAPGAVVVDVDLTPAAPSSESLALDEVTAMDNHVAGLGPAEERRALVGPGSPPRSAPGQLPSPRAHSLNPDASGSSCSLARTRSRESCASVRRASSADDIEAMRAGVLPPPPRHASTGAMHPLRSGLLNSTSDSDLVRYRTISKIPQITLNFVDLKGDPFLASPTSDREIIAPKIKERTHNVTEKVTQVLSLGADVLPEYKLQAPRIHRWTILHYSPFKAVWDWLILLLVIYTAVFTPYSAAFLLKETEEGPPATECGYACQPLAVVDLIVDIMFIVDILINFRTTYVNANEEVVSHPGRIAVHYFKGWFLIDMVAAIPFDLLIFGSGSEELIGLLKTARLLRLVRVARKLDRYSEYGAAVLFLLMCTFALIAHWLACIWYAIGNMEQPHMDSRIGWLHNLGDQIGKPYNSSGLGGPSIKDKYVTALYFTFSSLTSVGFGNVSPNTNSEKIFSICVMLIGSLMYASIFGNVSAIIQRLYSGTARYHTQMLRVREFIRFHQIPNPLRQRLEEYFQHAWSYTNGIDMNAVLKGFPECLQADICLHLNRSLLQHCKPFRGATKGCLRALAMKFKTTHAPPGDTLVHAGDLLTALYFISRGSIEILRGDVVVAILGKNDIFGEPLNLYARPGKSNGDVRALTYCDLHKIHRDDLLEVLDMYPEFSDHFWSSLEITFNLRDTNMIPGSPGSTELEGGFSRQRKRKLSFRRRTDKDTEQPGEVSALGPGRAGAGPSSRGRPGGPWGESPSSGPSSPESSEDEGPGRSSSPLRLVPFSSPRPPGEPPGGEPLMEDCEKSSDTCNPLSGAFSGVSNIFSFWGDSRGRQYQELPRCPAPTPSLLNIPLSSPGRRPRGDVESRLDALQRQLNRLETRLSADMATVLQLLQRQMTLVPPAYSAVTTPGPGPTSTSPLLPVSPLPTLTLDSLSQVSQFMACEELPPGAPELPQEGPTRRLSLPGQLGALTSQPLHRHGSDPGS", "assay": "primary screen, population patch clamp on CHO cells stably expressing hERG", "units": {"hERG current change (%, negative = inhibition) at 10uM": "%"}, "values": [
      {"smiles": "CS(=O)(=O)c1ccc2nc(NC(=O)c3ccc(=O)[nH]c3)sc2c1", "hERG current change (%, negative = inhibition) at 10uM": 9.39},
      {"smiles": "CCC1CCCCN1CCCn1c(=S)[nH]c2ccccc2c1=O", "note": "(centres unmarked)", "hERG current change (%, negative = inhibition) at 10uM": -56.2},
      {"smiles": "CC(Sc1nc(N)cc(=O)[nH]1)C(=O)Nc1sc2c(c1C#N)CCCC2", "note": "(centres unmarked)", "hERG current change (%, negative = inhibition) at 10uM": 1.55},
      {"smiles": "Nc1c(Br)c(=O)[nH]c(=O)n1-c1ccc(F)cc1", "hERG current change (%, negative = inhibition) at 10uM": 14.2},
      {"smiles": "COC(=O)C(NC(C)=O)(Nc1nc2ccc(C)cc2s1)C(F)(F)F", "note": "(centres unmarked)", "hERG current change (%, negative = inhibition) at 10uM": 11.5},
      {"smiles": "CCOC(=O)c1ccc(NC(C)=O)c([N+](=O)[O-])c1", "hERG current change (%, negative = inhibition) at 10uM": 7.41},
      {"smiles": "O=C(NCc1ccccc1)c1n[nH]nc1-c1ccccc1O", "hERG current change (%, negative = inhibition) at 10uM": -4.54},
      {"smiles": "CC(C)Cn1c(N)c(C(=O)CSc2ncccn2)c(=O)n(C)c1=O", "hERG current change (%, negative = inhibition) at 10uM": 6.81},
      {"smiles": "COc1ccc(NC(=O)C(c2cc3c(cc2[N+](=O)[O-])OCO3)N(C)c2ccccc2)cc1", "note": "(centres unmarked)", "hERG current change (%, negative = inhibition) at 10uM": 5.65},
      {"smiles": "CSc1ccc(C(=O)C2CCCN(C(=O)c3ccc4c(c3)OCO4)C2)cc1", "note": "(centres unmarked)", "hERG current change (%, negative = inhibition) at 10uM": -34},
      {"smiles": "O=C(Nc1ccc(NC(=O)c2ccco2)nc1)c1cccc(F)c1", "hERG current change (%, negative = inhibition) at 10uM": 17.2},
      {"smiles": "Nc1nc(CSc2ccccc2)nc(N2CCCCC2)n1", "hERG current change (%, negative = inhibition) at 10uM": -3.27},
      {"smiles": "O=C(NC1CCCc2ccccc21)c1cccc(S(=O)(=O)N2CCN(c3ccccc3)CC2)c1", "note": "(centres unmarked)", "hERG current change (%, negative = inhibition) at 10uM": -4.06},
      {"smiles": "Nc1nc2ccc(C(=O)NCCOC(=O)C3CCCCC3)cc2s1", "hERG current change (%, negative = inhibition) at 10uM": 33.3},
      {"smiles": "COc1ccccc1N1CCN(C(=O)c2cc(C(=O)N3CCN(c4ccccc4OC)CC3)cc([N+](=O)[O-])c2)CC1", "hERG current change (%, negative = inhibition) at 10uM": -0.436},
      {"smiles": "COC(=O)c1ccccc1NC(=O)N1CCN(C/C=C/c2ccccc2)CC1", "hERG current change (%, negative = inhibition) at 10uM": -45.1},
      {"smiles": "O=C(COC(=O)c1cc([N+](=O)[O-])ccc1N1CCOCC1)NCc1ccc(F)cc1", "hERG current change (%, negative = inhibition) at 10uM": -53.7},
      {"smiles": "O=C(NCc1ccccc1)C(c1cccnc1)N(C(=O)c1csnn1)c1ccccc1", "note": "(centres unmarked)", "hERG current change (%, negative = inhibition) at 10uM": -1.43},
      {"smiles": "CCOC(=O)c1ccc(-c2c(-c3ccc4c(c3)OCO4)noc2-c2ccsc2)cc1F", "hERG current change (%, negative = inhibition) at 10uM": 4.06},
      {"smiles": "CN(C)Cc1ccc(F)cc1Sc1cc(Cl)ccc1Cl.Cl", "hERG current change (%, negative = inhibition) at 10uM": 21.5},
      {"smiles": "O=C(CN1CCN(Cc2cccc(F)c2)CC1)Nc1ccccc1F", "hERG current change (%, negative = inhibition) at 10uM": -55.9},
      {"smiles": "COC(=O)c1sccc1NC(=O)c1c(C)noc1C", "hERG current change (%, negative = inhibition) at 10uM": -0.75},
      {"smiles": "O=C(O)CNC(=O)c1ccccc1", "hERG current change (%, negative = inhibition) at 10uM": 16.8},
      {"smiles": "CCN(CC)CCOc1ncnc2c1oc1ccccc12", "hERG current change (%, negative = inhibition) at 10uM": -39.1},
      {"smiles": "NP(=O)(OCC(F)(F)F)Oc1ccc(Cl)cc1", "note": "(centres unmarked)", "hERG current change (%, negative = inhibition) at 10uM": 10.4},
      {"smiles": "CCCC(C)NC(=O)CSCc1ccc(OC)cc1", "note": "(centres unmarked)", "hERG current change (%, negative = inhibition) at 10uM": -10.6},
      {"smiles": "COCCCNC(=O)c1cccs1", "hERG current change (%, negative = inhibition) at 10uM": 5.24},
      {"smiles": "O=C1C(=O)N(CCCn2ccnc2)C(c2ccc(Cl)cc2)/C1=C(\\O)c1ccc2c(c1)OCCO2", "note": "(centres unmarked)", "hERG current change (%, negative = inhibition) at 10uM": 23.4},
      {"smiles": "CN(C(=O)c1ccc(NC(=O)Cc2ccc(NC(=O)C3CCN(C(=O)c4ccccc4)CC3)cc2)cc1)C1CC1", "hERG current change (%, negative = inhibition) at 10uM": 13.9},
      {"smiles": "Cc1nn(Cc2ccccc2)c(Cl)c1C(=O)NCc1ccco1", "hERG current change (%, negative = inhibition) at 10uM": -0.682},
      {"smiles": "Cc1onc(C(=O)Nc2sc3c(c2C(N)=O)CCCC3)c1[N+](=O)[O-]", "hERG current change (%, negative = inhibition) at 10uM": -15.4},
      {"smiles": "CC(=O)Nc1ccc(S(=O)(=O)NCC(=O)NC(C)c2ccc(S(N)(=O)=O)cc2)cc1", "note": "(centres unmarked)", "hERG current change (%, negative = inhibition) at 10uM": 17.4},
      {"smiles": "CN(C)/C=C/C(=O)C(Cl)(Cl)Cl", "hERG current change (%, negative = inhibition) at 10uM": 11.6},
      {"smiles": "COc1cccc(N2CCN(CC(=O)NC3=Nc4ccccc4N=C(C)C3c3ccccc3)CC2)c1", "note": "(centres unmarked)", "hERG current change (%, negative = inhibition) at 10uM": -28.7},
      {"smiles": "COc1cc(O)c(C(CC(=O)N2CCCC(C)C2)c2cc(OC)c(OC)c(OC)c2)c(OC)c1", "note": "(centres unmarked)", "hERG current change (%, negative = inhibition) at 10uM": 2.69},
      {"smiles": "COC(=O)CSc1nc(C2CC2)nc2ccccc12", "hERG current change (%, negative = inhibition) at 10uM": -11.5},
      {"smiles": "COc1cccc(S(=O)(=O)Nc2ccc(C(=O)N3CCCCCC3)cc2)c1", "hERG current change (%, negative = inhibition) at 10uM": -18.7},
      {"smiles": "O=c1cc(C(F)(F)F)nc(SC/C=C/c2ccccc2)[nH]1", "hERG current change (%, negative = inhibition) at 10uM": 18.6},
      {"smiles": "COc1ccc(N(CC(=O)N2CCCCCC2)S(=O)(=O)c2ccccc2)cc1", "hERG current change (%, negative = inhibition) at 10uM": -12.6},
      {"smiles": "CCOC(=O)CNC(=S)N(Cc1ccco1)Cc1ccccc1Cl", "hERG current change (%, negative = inhibition) at 10uM": -19.6},
      {"smiles": "CCCn1nnc(NC(=O)c2ccc(Br)o2)n1", "hERG current change (%, negative = inhibition) at 10uM": -4.46},
      {"smiles": "CCOc1ccc(CNC(=O)CN2C(=O)C(c3ccccc3)Oc3cccnc32)cc1", "note": "(centres unmarked)", "hERG current change (%, negative = inhibition) at 10uM": -3.6},
      {"smiles": "O=S1(=O)C=C(N2CCCCC2)c2ccccc21", "hERG current change (%, negative = inhibition) at 10uM": -23.7},
      {"smiles": "Cc1ccccc1-c1cc(C(=O)NCc2cccc(C(F)(F)F)c2)nn1CC1CC(c2cccc([N+](=O)[O-])c2)=NO1", "note": "(centres unmarked)", "hERG current change (%, negative = inhibition) at 10uM": -4.4},
      {"smiles": "O=c1[nH]c(C2CCN(S(=O)(=O)c3ccccc3)CC2)nc2c1nnn2Cc1ccccc1", "hERG current change (%, negative = inhibition) at 10uM": -22.3},
      {"smiles": "Cc1cc(C)nc(SCC(=O)c2ccc(F)cc2)n1", "hERG current change (%, negative = inhibition) at 10uM": 10.6},
      {"smiles": "Cc1cc(NC(=O)Cn2cnc3c(cnn3C(C)(C)C)c2=O)no1", "hERG current change (%, negative = inhibition) at 10uM": 5.53},
      {"smiles": "OC(COc1ccccc1)CN(Cc1ccccc1)CC(O)COc1ccccc1", "note": "(centres unmarked)", "hERG current change (%, negative = inhibition) at 10uM": -9.08},
      {"smiles": "Cc1csc(NC(=O)c2ccc(C)c([N+](=O)[O-])c2)n1", "hERG current change (%, negative = inhibition) at 10uM": -41.6},
      {"smiles": "O=C1N=C(N2CCN(c3ccccc3)CC2)S/C1=C/c1cccs1", "hERG current change (%, negative = inhibition) at 10uM": -49.3},
      {"smiles": "COc1ccc(S(=O)(=O)Nc2ccccc2C(=O)N2CCCC2)cc1OC", "hERG current change (%, negative = inhibition) at 10uM": 6.92},
      {"smiles": "CS(=O)(=O)/C(C#N)=C/c1cccn1S(=O)(=O)c1ccccc1", "hERG current change (%, negative = inhibition) at 10uM": 7.15},
      {"smiles": "C=CCn1cnc2c(oc3ccccc32)c1=O", "hERG current change (%, negative = inhibition) at 10uM": 4.04},
      {"smiles": "Cc1cc(C)c(C#N)c(N2CCN(CCOc3ccc(Cl)cc3)CC2)n1", "hERG current change (%, negative = inhibition) at 10uM": -33.6},
      {"smiles": "O=C(CCCCC(=O)Nc1ccc(F)cc1)Nc1ccc(F)cc1", "hERG current change (%, negative = inhibition) at 10uM": 18},
      {"smiles": "O=C(NNC(=O)c1ccc(NC(=O)c2ccccc2)cc1)c1ccccc1", "hERG current change (%, negative = inhibition) at 10uM": 16.3}
    ]}
  ]
}
